Hit rate of the full screen: of about 360,000 compounds, about 16,000 (4.4%) were called active. Inconclusive means that the source gave no clear call. Such entries were picked first, then a sample of the others. Calls follow the shape of the dose curve; as a rule, active = well fitted inhibition curve with a large enough effect; inconclusive = small, poorly fitted or top-dose-only effect; inactive = no such curve, though single readings can be large or run the other way. Potencies of inconclusive entries are doubtful fits and often do not repeat.
biological target: Bromodomain adjacent to zinc finger domain protein 2B (Homo sapiens) (UniProt Q9UIF8); experiment: qHTS Assay for Inhibitors of BAZ2B; conditions: AlphaScreen BAZ2B-H3K14Ac peptide displacement; series mostly up to 114 µM; also: nearly all actives have a fitted effect of over 60% in size
Summary of the method: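 BAZ2B 50 nM plus b-H3(5-23)K14Ac 50 nM, PBS pH 7.4/0.01% Tween-20, 30 min RT; compound added (max 110 uM), 30 min RT; streptavidin donor/Ni-chelate acceptor beads 10 ug/mL final, 20 min dark; AlphaScreen read.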
Potency is read from the fitted curve at half-maximal effect; tags tell the direction and shape of the fitted curve.

UniProt Q9UIF8, sequence (Q9UIF8 whole entry, looked up, the tested form may be a part): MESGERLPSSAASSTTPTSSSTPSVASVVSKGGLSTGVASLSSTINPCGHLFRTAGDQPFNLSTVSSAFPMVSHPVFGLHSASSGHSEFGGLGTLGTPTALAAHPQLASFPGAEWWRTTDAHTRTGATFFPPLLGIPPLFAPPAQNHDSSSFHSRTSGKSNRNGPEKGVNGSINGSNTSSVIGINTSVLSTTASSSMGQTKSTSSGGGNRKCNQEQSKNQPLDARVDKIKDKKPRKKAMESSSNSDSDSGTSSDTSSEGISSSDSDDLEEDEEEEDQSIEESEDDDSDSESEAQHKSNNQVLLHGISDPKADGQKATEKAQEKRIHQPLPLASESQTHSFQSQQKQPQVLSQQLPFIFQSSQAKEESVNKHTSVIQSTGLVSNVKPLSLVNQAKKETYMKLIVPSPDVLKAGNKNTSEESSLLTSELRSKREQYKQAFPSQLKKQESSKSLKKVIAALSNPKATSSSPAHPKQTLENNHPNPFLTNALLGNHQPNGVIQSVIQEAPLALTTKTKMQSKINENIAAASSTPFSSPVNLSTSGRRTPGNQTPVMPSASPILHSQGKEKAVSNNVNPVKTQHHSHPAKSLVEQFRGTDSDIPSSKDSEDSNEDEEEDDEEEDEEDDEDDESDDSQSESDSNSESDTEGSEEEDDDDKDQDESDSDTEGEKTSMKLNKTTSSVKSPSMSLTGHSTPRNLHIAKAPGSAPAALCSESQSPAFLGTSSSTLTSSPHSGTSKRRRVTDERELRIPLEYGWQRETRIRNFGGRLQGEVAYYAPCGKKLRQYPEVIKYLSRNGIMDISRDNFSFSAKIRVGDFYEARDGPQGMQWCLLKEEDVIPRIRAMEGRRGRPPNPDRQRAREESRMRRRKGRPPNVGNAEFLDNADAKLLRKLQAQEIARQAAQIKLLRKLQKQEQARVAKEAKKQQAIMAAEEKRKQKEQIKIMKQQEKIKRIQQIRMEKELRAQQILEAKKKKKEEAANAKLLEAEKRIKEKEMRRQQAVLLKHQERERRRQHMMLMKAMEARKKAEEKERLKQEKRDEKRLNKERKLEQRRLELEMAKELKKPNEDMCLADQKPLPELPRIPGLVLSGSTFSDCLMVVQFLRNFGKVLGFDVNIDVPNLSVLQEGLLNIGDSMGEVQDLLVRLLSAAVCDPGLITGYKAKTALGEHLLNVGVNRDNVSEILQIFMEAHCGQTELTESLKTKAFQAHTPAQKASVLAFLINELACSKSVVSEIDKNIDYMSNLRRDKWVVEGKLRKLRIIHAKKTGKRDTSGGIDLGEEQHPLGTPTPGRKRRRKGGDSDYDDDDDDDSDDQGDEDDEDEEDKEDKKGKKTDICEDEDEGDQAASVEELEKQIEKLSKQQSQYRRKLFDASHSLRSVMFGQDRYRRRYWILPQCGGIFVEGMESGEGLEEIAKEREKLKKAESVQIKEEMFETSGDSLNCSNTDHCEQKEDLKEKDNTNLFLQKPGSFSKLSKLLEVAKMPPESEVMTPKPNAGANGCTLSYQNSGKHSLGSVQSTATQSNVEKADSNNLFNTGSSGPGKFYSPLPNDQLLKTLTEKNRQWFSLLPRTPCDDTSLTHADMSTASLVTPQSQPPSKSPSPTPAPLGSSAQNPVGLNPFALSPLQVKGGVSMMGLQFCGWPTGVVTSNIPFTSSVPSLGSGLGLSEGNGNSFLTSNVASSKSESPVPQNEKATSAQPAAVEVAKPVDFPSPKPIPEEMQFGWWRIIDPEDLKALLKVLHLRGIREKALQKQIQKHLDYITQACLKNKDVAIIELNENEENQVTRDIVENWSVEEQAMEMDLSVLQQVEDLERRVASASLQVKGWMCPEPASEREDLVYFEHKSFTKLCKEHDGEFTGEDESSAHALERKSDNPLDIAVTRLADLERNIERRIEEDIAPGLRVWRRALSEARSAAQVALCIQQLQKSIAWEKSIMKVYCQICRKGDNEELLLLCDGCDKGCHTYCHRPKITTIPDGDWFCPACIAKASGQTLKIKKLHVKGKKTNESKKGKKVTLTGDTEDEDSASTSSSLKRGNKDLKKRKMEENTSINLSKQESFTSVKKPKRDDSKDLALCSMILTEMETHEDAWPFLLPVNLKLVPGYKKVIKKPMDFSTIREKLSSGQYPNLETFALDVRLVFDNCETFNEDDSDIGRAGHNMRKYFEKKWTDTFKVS

How did the Potency turn out when `CN1CCC[C@H]1c1cccnc1` was run?
Its Potency is “inactive”.

For `Cc1ccc(CC(=O)N2CCN(Cc3ccccc3)CC2)cc1`, which Potency is on record?
Its Potency is “inactive”.

For `CN(C)C(=O)Oc1ccc([N+](=O)[O-])cc1`, which Potency is on record?
Its Potency is “inactive”.

Which Potency does the source give for `COc1ccccc1CCNCc1ccc(OC)c(OC)c1OC` here?
Its Potency is active: 39.8 µM.

For `O=C1CCCN1C(=O)c1cncc(Br)c1`, which Potency is on record?
Its Potency is inconclusive: 11.2 µM [inhibitor, single point].

How did the Potency turn out when `Cc1ccccc1-n1c(O)c(/C=N/NC(=O)c2ccccc2O)c(=O)[nH]c1=S` was run?
The Potency was active: 44.7 µM.

How did the Potency turn out when `Cc1ccc(N2C(=O)NC(=O)/C(=C\c3cn(CC(=O)O)c4ccccc34)C2=O)cc1` was run?
Its Potency is inconclusive: 89.1 µM [inhibitor, single point].

`CC1=NN(c2ccccc2)C(=O)C1/C=C1/C(=O)NC(=O)N(c2cc(C)cc(C)c2)C1=O` (centres undefined) was tested. Which Potency did it give?
Its Potency is inconclusive: 79.4 µM [inhibitor, single point].

`Cc1[nH]c2ccc(OC(F)(F)F)cc2c1CCNCc1cccc([N+](=O)[O-])c1` was tested. Which Potency did it give?
The Potency was active: 50.1 µM.

How did the Potency turn out when `COC(=O)C1=C(c2c(C)noc2C)C[C@@H]2CC[C@H]1N2C(=O)NCc1ccco1` was run?
Its Potency is “inactive”.

`Nc1ccc(C2(c3ccc(N)cc3)CCCCC2)cc1` was tested. Which Potency did it give?
The Potency was inconclusive: 50.1 µM [inhibitor, partial curve].

With `Cc1ccc(NC(=O)COC(=O)/C=C/c2ccco2)cc1S(=O)(=O)N(C)C` as the molecule, how does the Potency read?
Its Potency is inconclusive: 50.1 µM [inhibitor, partial curve].

With `CN1CCc2nc(SCc3ccccc3Br)c(C#N)cc2C1` as the molecule, how does the Potency read?
The Potency was “inactive”.

With `Cc1nc2ccccc2c(=O)n1-c1ccc(Cl)cc1Cl` as the molecule, how does the Potency read?
The Potency was inconclusive: 89.1 µM [inhibitor, single point].

With `CCN(CC)c1ccc(/C=C2\C(=O)NC(=S)N(C)C2=O)o1` as the molecule, how does the Potency read?
Its Potency is inconclusive: 50.1 µM [inhibitor, partial curve].

`Cc1ccc(C(C)C)c(OCC(=O)N2CCN(Cc3nc4cc([N+](=O)[O-])ccc4n3C)CC2)c1` was tested. Which Potency did it give?
The Potency was inconclusive: 79.4 µM [inhibitor, single point].

For `C=C(C)C(=O)Nc1cccc(C2=NOC3(C2)C[C@H](C(N)=O)N(C(=O)/C=C/C)C3)c1` (some centres undefined), which Potency is on record?
Its Potency is active: 7.08 µM.

Which Potency does the source give for `COc1cccc(CCNCc2cccc(C(F)(F)F)c2)c1` here?
Its Potency is active: 56.2 µM.

With `COc1ccc(C2=NCC(=O)N(CC(=O)NCc3ccco3)c3sc4c(c32)CCCC4)cc1` as the molecule, how does the Potency read?
The Potency was inconclusive: 50.1 µM [inhibitor, partial curve].

For `Cc1ccc2c(c1)c(C1=c3ccccc3=NC1=O)c(O)n2C`, which Potency is on record?
Its Potency is inconclusive: 70.8 µM [inhibitor, single point].

For `Cn1c(O)c(/C=N/NC(=O)c2ccncc2)c(=O)n(C)c1=S`, which Potency is on record?
The Potency was inconclusive: 89.1 µM [inhibitor, single point].

How did the Potency turn out when `CCCc1cc(N2CCN(c3ccc(OC)cc3)CC2)n2cnnc2n1` was run?
Its Potency is inconclusive: 79.4 µM [inhibitor, single point].

How did the Potency turn out when `Cc1ccc2c(c1N)C(=O)c1ccccc1C2=O` was run?
The Potency was inconclusive: 35.5 µM [inhibitor, full curve].

`CN1CCC(N(C)c2ncnc3ccc(Br)cc23)CC1` was tested. Which Potency did it give?
Its Potency is “inactive”.

`COC(=O)C(O)(c1ccc(N(C)C)cc1)C(F)(F)F` (centres undefined) was tested. Which Potency did it give?
Its Potency is “inactive”.

Which Potency does the source give for `CCCC1=Nc2cc(C(=O)NCCc3ccc(OC)cc3OC)ccc2Sc2ccccc21` here?
The Potency was active: 79.4 µM.

With `COc1ccc(OC)c(NC2=NCCS2)c1` as the molecule, how does the Potency read?
Its Potency is inconclusive: 89.1 µM [inhibitor, single point].

`Cc1cc(OCC(=O)N2CCN(CCc3ccncc3)CC2)cc(C)c1Cl` was tested. Which Potency did it give?
The Potency was “inactive”.

With `COc1cccc(CN2CCNCC2)c1OC` as the molecule, how does the Potency read?
Its Potency is inconclusive: 89.1 µM [inhibitor, single point].

How did the Potency turn out when `Cc1cccc(-n2c(C)nc3ccccc3c2=O)n1` was run?
The Potency was “inactive”.

Which Potency does the source give for `Cc1ccnc(-n2c(C)cc(/C=C3\C(=O)NC(=S)N(C)C3=O)c2C)c1` here?
Its Potency is inconclusive: 44.7 µM [inhibitor, partial curve].

How did the Potency turn out when `CN1CC(C(=O)c2ccc(Cl)cc2)C(c2ccc(Cl)cc2Cl)C1` (centres undefined) was run?
The Potency was “inactive”.

Which Potency does the source give for `Cc1ccc(N2C(=O)NC(=O)/C(=C\c3cc(C)n(-c4sc5c(c4C#N)CCCC5)c3C)C2=O)cc1` here?
The Potency was inconclusive: 39.8 µM [inhibitor, partial curve].

`CN(C)c1ccc2c(c1)N=C(c1ccco1)OP2(=S)N1CCOCC1` (centres undefined) was tested. Which Potency did it give?
The Potency was inconclusive: 79.4 µM [inhibitor, single point].

With `CCn1c(C)nc2cc(S(=O)(=O)Nc3ccc(C)cc3)ccc21` as the molecule, how does the Potency read?
The Potency was inconclusive: 89.1 µM [inhibitor, single point].

For `Cn1c(=O)n(CC(=O)N2CCC3(CC2)OCCO3)c(=O)c2ccccc21`, which Potency is on record?
The Potency was “inactive”.

`O=CC(Br)P(=O)(N1CCOCC1)N1CCOCC1` (centres undefined) was tested. Which Potency did it give?
The Potency was “inactive”.

`C=C(C)CN1CC[C@]23c4c5ccc(O)c4O[C@H]2c2[nH]c4ccccc4c2C[C@@]3(O)C1C5` was tested. Which Potency did it give?
The Potency was inconclusive: 50.1 µM [inhibitor, partial curve].

For `O=C1NCCN2CCCC12` (centres undefined), which Potency is on record?
The Potency was “inactive”.

How did the Potency turn out when `Cc1ccc(Cn2cc(C=O)c3ccccc32)cc1` was run?
The Potency was inconclusive: 89.1 µM [inhibitor, single point].

For `O=C1NC(=O)N(c2ccc3c(c2)OCO3)C(=O)/C1=C/c1ccsc1`, which Potency is on record?
The Potency was “inactive”.

How did the Potency turn out when `O=[N+]([O-])c1cccc(CN2CCN(Cc3ccc(Cl)cc3)CC2)c1` was run?
The Potency was active: 20 µM.

`COC(=O)C1=C(c2cccc(OCc3ccccc3)c2)C[C@@H]2CC[C@H]1N2C(=O)NCc1ccc(N(C)C)cc1` was tested. Which Potency did it give?
The Potency was active: 10 µM.

`COc1cc(CN2CCN(C(=O)Cc3ccccc3)CC2)cc(OC)c1OC` was tested. Which Potency did it give?
Its Potency is inconclusive: 89.1 µM [inhibitor, single point].

Which Potency does the source give for `Cn1c(O)c(C(=Nc2ccccc2)SCc2ccc(Cl)cc2)c(=O)n(C)c1=O` here?
Its Potency is inconclusive: 89.1 µM [inhibitor, single point].

For `COc1ccc(CN2CCN(C(=O)Cc3ccccc3)CC2)cc1Br`, which Potency is on record?
Its Potency is inconclusive: 89.1 µM [inhibitor, single point].

`Cc1c(C(=O)N2CCC3(CC2)OCCO3)sc2ncnc(N3CCc4ccccc4C3)c12` was tested. Which Potency did it give?
Its Potency is inconclusive: 70.8 µM [inhibitor, single point].

Which Potency does the source give for `CN1C(=O)N(C)C(=O)C2(Cc3ccccc3N3CCCC32)C1=O` (centres undefined) here?
Its Potency is “inactive”.

`CCCc1c(C)nc(-c2ccc(C)cc2)nc1OC(=O)N(C)C` was tested. Which Potency did it give?
The Potency was “inactive”.

With `CC1CCN2c3nc4ccccn4c(=O)c3CC3(C(=O)N(C)C(=O)N(C)C3=O)C2C1` (centres undefined) as the molecule, how does the Potency read?
Its Potency is “inactive”.

With `CN1C[C@H](CNC(=O)OCc2ccccc2)C[C@@H]2c3cccc4c3c(cn4C)C[C@H]21` as the molecule, how does the Potency read?
The Potency was active: 44.7 µM.

Which Potency does the source give for `Cc1ccc(C2C(S(C)(=O)=O)=C(O)C(=O)N2c2ccccc2)cc1` (centres undefined) (tested in a mixture with another compound) here?
The Potency was inconclusive: 89.1 µM [inhibitor, single point].

How did the Potency turn out when `CNC(C(=O)c1ccccc1)C(OC)c1cccc([N+](=O)[O-])c1` (centres undefined) was run?
Its Potency is “inactive”.

Which Potency does the source give for `COc1cccc(CN2CCc3nc(N4CCN(c5ncccn5)CC4)ncc3C2)c1` here?
Its Potency is active: 39.8 µM.

For `Cn1cccc1/C=C1/C(=O)NC(=O)N(Cc2ccc(F)cc2)C1=O`, which Potency is on record?
Its Potency is active: 44.7 µM.

For `CC12CCCCC1(O)[N+](=O)C1=C(CCCC1)N2[O-]` (centres undefined), which Potency is on record?
The Potency was inconclusive: 79.4 µM [inhibitor, single point].

With `O=C1/C(=C/c2ccc([N+](=O)[O-])cc2)N2CCC1CC2` as the molecule, how does the Potency read?
Its Potency is inconclusive: 50.1 µM [inhibitor, partial curve].

For `CC1=Nc2ccccc2/C1=C/c1c(O)[nH]c(=O)[nH]c1=O`, which Potency is on record?
Its Potency is inconclusive: 89.1 µM [inhibitor, single point].

With `O=C(c1cccc(N2CCCC2=O)c1)N1CCC2(CC1)OCCO2` as the molecule, how does the Potency read?
The Potency was inconclusive: 89.1 µM [inhibitor, single point].

With `COC(=O)C1=C(c2ccc(F)cc2OCc2ccccc2)C[C@@H]2CC[C@H]1N2C(=O)NCc1ccco1` as the molecule, how does the Potency read?
The Potency was inconclusive: 89.1 µM [inhibitor, single point].

Which Potency does the source give for `Brc1cc2c(cc1CN1CCN(c3ccccc3)CC1)OCCO2` here?
The Potency was inconclusive: 22.4 µM [inhibitor, full curve, poor fit].

For `O=[N+]([O-])c1cccc(CN2CC=C(c3ccc(F)cc3)CC2)c1`, which Potency is on record?
The Potency was inconclusive: 79.4 µM [inhibitor, single point].

`CC1CCC(C(C)C)C(OP(=O)(c2ccc(N(C)C)cc2)C(O)c2cccnc2)C1` (centres undefined) was tested. Which Potency did it give?
Its Potency is inconclusive: 39.8 µM [inhibitor, partial curve].

How did the Potency turn out when `CSc1ncc(Cl)c(C(=O)O)n1` was run?
The Potency was inconclusive: 89.1 µM [inhibitor, single point].

How did the Potency turn out when `C=CCn1c(O)c(C(C)=O)c(=O)[nH]c1=O` (tested in a mixture with another compound) was run?
Its Potency is “inactive”.

For `CN(CCc1ccccc1)Cc1c[nH]c2ccccc12`, which Potency is on record?
The Potency was inconclusive: 89.1 µM [inhibitor, single point].

For `CCc1ccc(CN2CCN(C(=O)Cc3ccccc3)CC2)cc1`, which Potency is on record?
Its Potency is active: 25.1 µM.

Which Potency does the source give for `O=C(Cc1ccccc1)N1CCN(Cc2ccc(F)cc2)CC1` here?
Its Potency is active: 79.4 µM.

With `O=P(/C(=N/O)N1CCCCC1)(N1CCOCC1)N1CCOCC1` as the molecule, how does the Potency read?
Its Potency is “inactive”.

With `O=C1NC(=O)C(=Cc2ccc(N3CCOCC3)o2)C(=O)N1` as the molecule, how does the Potency read?
The Potency was inconclusive: 79.4 µM [inhibitor, single point].

With `O=c1[nH]c(=O)n(-c2ccccc2)c(O)c1/C=C1/C(c2ccccc2)=Nc2ccccc21` as the molecule, how does the Potency read?
Its Potency is inconclusive: 50.1 µM [inhibitor, partial curve].

For `CCOc1cc2c(cc1OCC)-n1cccc1C(c1cccc(OCC)c1O)NC2` (centres undefined), which Potency is on record?
Its Potency is inconclusive: 44.7 µM [inhibitor, partial curve].

For `CC1=CC2/C=C(\C)CCC(O)C(O)/C=C/C(=O)C23C(=O)NC(CC(C)C)C3C1C` (centres undefined), which Potency is on record?
The Potency was “inactive”.

For `CCOc1cc(C2NCc3ccccc3-n3cccc32)ccc1OC` (centres undefined), which Potency is on record?
The Potency was inconclusive: 50.1 µM [inhibitor, partial curve].
